# Laboratory results published in the supplement of paper PMC8728848.
# The list shows a part of the results.
# B1: LBL-152 (Laetiporus bicolor), B0D650 (protein)
# chain: MSNEYNPPLGIAFRLCGLASDRVLFSRVSPSPEVFHHPKSEVYPDQWFVAIPGSGQNAGCYAIKSKNTGKVLFSRMSPDPRVGHIDGDGKYPDNWFKFEAGSGKYAGYFRLRAVASDTVLVSRTSTGTDTQVINYPATSAKYDDQYFTILFDHHHHHH
# What was measured:
# Experiment in all cases: glycan array binding signal (z-score within array); higher = stronger binding
# Conditions in all cases: glycan notation: IUPAC condensed, linker removed
# [1] = target: Neu5Ac(a2-3)Gal(b1-4)GlcNAc(b1-2)[Neu5Ac(a2-3)Gal(b1-4)GlcNAc(b1-4)]Man(a1-3)[GlcNAc(b1-4)][Neu5Ac(a2-3)Gal(b1-4)GlcNAc(b1-2)[Neu5Ac(a2-3)Gal(b1-4)GlcNAc(b1-6)]Man(a1-6)]Man(b1-4)GlcNAc(b1-4)GlcNAc
# Outline: (§1)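 Glycan array data were curated from 3228 arrays in the Consortium for Functional Glycomics database and kept only where the protein sequence was available. Glycan names were converted to IUPAC-condensed notation, and columns mapping to the same glycan were averaged. The binding signal is a within-array Z-score, averaged across arrays of the same protein sequence at different concentrations or buffers and across linkers. Negative Z-scores can be read as non-binding.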
# [2] = target: Neu5Ac(a2-3)Gal(b1-4)GlcNAc(b1-2)[Neu5Ac(a2-3)Gal(b1-4)GlcNAc(b1-4)]Man(a1-3)[GlcNAc(b1-4)][Neu5Ac(a2-3)Gal(b1-4)GlcNAc(b1-4)Man(a1-6)]Man(b1-4)GlcNAc(b1-4)GlcNAc
# Outline: as §1
# [3] = target: Neu5Ac(a2-3)Gal(b1-4)GlcNAc(b1-2)[Neu5Ac(a2-3)Gal(b1-4)GlcNAc(b1-6)]Man(a1-6)[Neu5Ac(a2-3)Gal(b1-4)GlcNAc(b1-2)Man(a1-3)]Man(b1-4)GlcNAc(b1-4)GlcNAc
# Outline: as §1
# [4] = target: Neu5Ac(a2-3)Gal(b1-4)GlcNAc(b1-2)[Neu5Ac(a2-3)Gal(b1-4)GlcNAc(b1-6)]Man(a1-6)[Neu5Ac(a2-3)Gal(b1-4)GlcNAc(b1-2)Man(a1-3)][GlcNAc(b1-4)]Man(b1-4)GlcNAc(b1-4)GlcNAc
# Outline: as §1
# [5] = target: Neu5Ac(a2-3)Gal(b1-4)GlcNAc(b1-3)Gal
# Outline: as §1
# [6] = target: Neu5Ac(a2-3)Gal(b1-4)GlcNAc(b1-3)Gal(b1-3)GlcNAc
# Outline: as §1
# [7] = target: Neu5Ac(a2-3)Gal(b1-4)GlcNAc(b1-3)Gal(b1-4)GlcNAc
# Outline: as §1
# [8] = target: Neu5Ac(a2-3)Gal(b1-4)GlcNAc(b1-3)Gal(b1-4)GlcNAc(b1-2)Man(a1-3)[Neu5Ac(a2-3)Gal(b1-4)GlcNAc(b1-3)Gal(b1-4)GlcNAc(b1-2)Man(a1-6)]Man(b1-4)GlcNAc(b1-4)GlcNAc
# Outline: as §1
# [9] = target: Neu5Ac(a2-3)Gal(b1-4)GlcNAc(b1-3)Gal(b1-4)GlcNAc(b1-3)Gal(b1-4)GlcNAc
# Outline: as §1
# [10] = target: Neu5Ac(a2-3)Gal(b1-4)GlcNAc(b1-3)Gal(b1-4)GlcNAc(b1-3)Gal(b1-4)GlcNAc(b1-2)Man(a1-3)[Neu5Ac(a2-3)Gal(b1-4)GlcNAc(b1-3)Gal(b1-4)GlcNAc(b1-3)Gal(b1-4)GlcNAc(b1-2)Man(a1-6)]GalNAc
# Outline: as §1
# [11] = target: Neu5Ac(a2-3)Gal(b1-4)GlcNAc(b1-3)Gal(b1-4)GlcNAc(b1-3)GalNAc
# Outline: as §1
# [12] = target: Neu5Ac(a2-3)Gal(b1-4)GlcNAc(b1-3)Gal(b1-4)GlcNAc(b1-3)[Neu5Ac(a2-3)Gal(b1-4)GlcNAc(b1-3)Gal(b1-4)GlcNAc(b1-6)]GalNAc
# Outline: as §1
# [13] = target: Neu5Ac(a2-3)Gal(b1-4)GlcNAc(b1-3)Gal(b1-4)GlcNAc(b1-6)[Gal(b1-3)]GalNAc
# Outline: as §1
# [14] = target: Neu5Ac(a2-3)Gal(b1-4)GlcNAc(b1-3)Gal(b1-4)[Fuc(a1-3)]GlcNAc
# Outline: as §1
# [15] = target: Neu5Ac(a2-3)Gal(b1-4)GlcNAc(b1-3)GalNAc
# Outline: as §1
# [16] = target: Neu5Ac(a2-3)Gal(b1-4)GlcNAc(b1-3)[Neu5Ac(a2-3)Gal(b1-4)GlcNAc(b1-6)]GalNAc
# Outline: as §1
# [17] = target: Neu5Ac(a2-3)Gal(b1-4)GlcNAc(b1-6)GalNAc
# Outline: as §1
# [18] = target: Neu5Ac(a2-3)Gal(b1-4)GlcNAc(b1-6)[Gal(b1-3)]GalNAc
# Outline: as §1
# [19] = target: Neu5Ac(a2-3)Gal(b1-4)GlcNAc(b1-6)[Neu5Ac(a2-3)Gal(b1-3)]GalNAc
# Outline: as §1
# [20] = target: Neu5Ac(a2-3)Gal(b1-4)GlcNAc6S
# Outline: as §1
# [21] = target: Neu5Ac(a2-3)Gal(b1-4)[Fuc(a1-3)]GlcNAc
# Outline: as §1
# [22] = target: Neu5Ac(a2-3)Gal(b1-4)[Fuc(a1-3)]GlcNAc(b1-2)Man
# Outline: as §1
# [23] = target: Neu5Ac(a2-3)Gal(b1-4)[Fuc(a1-3)]GlcNAc(b1-3)Gal
# Outline: as §1
# [24] = target: Neu5Ac(a2-3)Gal(b1-4)[Fuc(a1-3)]GlcNAc(b1-3)Gal(b1-4)GlcNAc
# Outline: as §1
# [25] = target: Neu5Ac(a2-3)Gal(b1-4)[Fuc(a1-3)]GlcNAc(b1-3)Gal(b1-4)[Fuc(a1-3)]GlcNAc(b1-3)Gal(b1-4)[Fuc(a1-3)]GlcNAc
# Outline: as §1
# [26] = target: Neu5Ac(a2-3)Gal(b1-4)[Fuc(a1-3)]GlcNAc(b1-3)GalNAc
# Outline: as §1
# [27] = target: Neu5Ac(a2-3)Gal(b1-4)[Fuc(a1-3)]GlcNAc(b1-6)[Gal(b1-3)]GalNAc
# Outline: as §1
# [28] = target: Neu5Ac(a2-3)Gal(b1-4)[Fuc(a1-3)]GlcNAc(b1-6)[Neu5Ac(a2-3)Gal(b1-3)]GalNAc
# Outline: as §1
# [29] = target: Neu5Ac(a2-3)Gal(b1-4)[Fuc(a1-3)]GlcNAc6S
# Outline: as §1
# [30] = target: Neu5Ac(a2-3)Gal6S(b1-4)GlcNAc
# Outline: as §1
# [31] = target: Neu5Ac(a2-3)Gal6S(b1-4)[Fuc(a1-3)]GlcNAc
# Outline: as §1
# Neu5Ac(a2-3)GalNAc = target: Neu5Ac(a2-3)GalNAc
# Outline: as §1
# [32] = target: Neu5Ac(a2-3)GalNAc(b1-4)GlcNAc
# Outline: as §1
# [33] = target: Neu5Ac(a2-3)[GalNAc(b1-4)]Gal(b1-4)Glc
# Outline: as §1
# [34] = target: Neu5Ac(a2-3)[GalNAc(b1-4)]Gal(b1-4)GlcNAc
# Outline: as §1
# [35] = target: Neu5Ac(a2-3)[GalNAc(b1-4)]Gal(b1-4)GlcNAc(b1-3)GalNAc
# Outline: as §1
# [36] = target: Neu5Ac(a2-3)[Neu5Ac(a2-6)]GalNAc
# Outline: as §1
# Neu5Ac(a2-6)Gal = target: Neu5Ac(a2-6)Gal
# Outline: as §1
# [37] = target: Neu5Ac(a2-6)Gal(b1-3)GlcNAc(b1-3)[Gal(b1-4)GlcNAc(b1-6)]Gal(b1-4)Glc
# Outline: as §1
# Neu5Ac(a2-6)Gal(b1-4)Glc = target: Neu5Ac(a2-6)Gal(b1-4)Glc
# Outline: as §1
# [38] = target: Neu5Ac(a2-6)Gal(b1-4)GlcNAc
# Outline: as §1
# [39] = target: Neu5Ac(a2-6)Gal(b1-4)GlcNAc(b1-2)Man
# Outline: as §1
# [40] = target: Neu5Ac(a2-6)Gal(b1-4)GlcNAc(b1-2)Man(a1-3)Man(b1-4)GlcNAc(b1-4)GlcNAc
# Outline: as §1
# [41] = target: Neu5Ac(a2-6)Gal(b1-4)GlcNAc(b1-2)Man(a1-3)[Gal(b1-4)GlcNAc(b1-2)Man(a1-6)]Man(b1-4)GlcNAc(b1-4)GlcNAc
# Outline: as §1
# [42] = target: Neu5Ac(a2-6)Gal(b1-4)GlcNAc(b1-2)Man(a1-3)[GlcNAc(b1-2)Man(a1-6)]Man(b1-4)GlcNAc(b1-4)GlcNAc
# Outline: as §1
binder,measurement,setting,value
B1,glycan array binding signal (z-score),[1],-0.153
same,glycan array binding signal (z-score),[2],-0.16
same,glycan array binding signal (z-score),[3],-0.147
same,glycan array binding signal (z-score),[4],-0.15
same,glycan array binding signal (z-score),[5],-0.154
same,glycan array binding signal (z-score),[6],-0.151
same,glycan array binding signal (z-score),[7],-0.159
same,glycan array binding signal (z-score),[8],-0.155
same,glycan array binding signal (z-score),[9],-0.143
same,glycan array binding signal (z-score),[10],-0.152
same,glycan array binding signal (z-score),[11],-0.159
same,glycan array binding signal (z-score),[12],-0.153
same,glycan array binding signal (z-score),[13],-0.162
same,glycan array binding signal (z-score),[14],-0.157
same,glycan array binding signal (z-score),[15],-0.152
same,glycan array binding signal (z-score),[16],-0.155
same,glycan array binding signal (z-score),[17],-0.16
same,glycan array binding signal (z-score),[18],-0.152
same,glycan array binding signal (z-score),[19],-0.161
same,glycan array binding signal (z-score),[20],-0.149
same,glycan array binding signal (z-score),[21],-0.156
same,glycan array binding signal (z-score),[22],-0.16
same,glycan array binding signal (z-score),[23],-0.156
same,glycan array binding signal (z-score),[24],-0.147
same,glycan array binding signal (z-score),[25],-0.153
same,glycan array binding signal (z-score),[26],-0.151
same,glycan array binding signal (z-score),[27],-0.153
same,glycan array binding signal (z-score),[28],-0.149
same,glycan array binding signal (z-score),[29],-0.152
same,glycan array binding signal (z-score),[30],-0.156
same,glycan array binding signal (z-score),[31],-0.153
same,glycan array binding signal (z-score),Neu5Ac(a2-3)GalNAc,-0.157
same,glycan array binding signal (z-score),[32],-0.153
same,glycan array binding signal (z-score),[33],-0.157
same,glycan array binding signal (z-score),[34],-0.158
same,glycan array binding signal (z-score),[35],-0.151
same,glycan array binding signal (z-score),[36],-0.151
same,glycan array binding signal (z-score),Neu5Ac(a2-6)Gal,-0.133
same,glycan array binding signal (z-score),[37],-0.16
same,glycan array binding signal (z-score),Neu5Ac(a2-6)Gal(b1-4)Glc,-0.151
same,glycan array binding signal (z-score),[38],-0.153
same,glycan array binding signal (z-score),[39],-0.151
same,glycan array binding signal (z-score),[40],-0.158
same,glycan array binding signal (z-score),[41],-0.157
same,glycan array binding signal (z-score),[42],-0.161
